Source: PubChem BioAssay AID463254 (National Center for Advancing Translational Sciences (NCATS), 2010)
The campaign covered roughly 330,000 compounds. About 40 (0.01%) were called active. Inconclusive results, whose numbers are uncertain, are shown with a selection of clear calls. Calls come from the whole dose curve; as a rule, active = well fitted inhibition curve with a large enough effect; inconclusive = small, poorly fitted or top-dose-only effect, or effect the other way; inactive = flat fitted curve, though single readings scatter. Where the call is inconclusive, the potency comes from a doubtful curve fit.

molecular target: Ubiquitin carboxyl-terminal hydrolase 2 (Homo sapiens) (UniProt O75604); assay: qHTS Assay for Inhibitors of Ubiquitin-specific Protease USP2a Using CHOP2 as the Reporter; conditions: USP2 core, Ub-CHOP2 coupled fluorogenic reporter, 485/531; activity change, negative = inhibition: at 38.3 µM (top of the series);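 for activity change, negative = inhibition: plate controls were DMSO wells for no effect and full inhibition by NEM control for full effect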
In short: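 Cell-free coupled assay: 10nM USP2 core preincubated 30min RT with compound in Tris-HCl pH 8.0/CaCl2/CHAPS buffer, then 25nM Ub-CHOP2 and 25nM reporter substrate; fluorescence (Ex 485/Em 531) read after 60min RT, normalized to NEM inhibition, concentration-response curves fitted.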
Potency is the fitted concentration of half-maximal effect; tags give direction and shape of the fitted curve or compound fluorescence and quenching.

Sequence of UniProt O75604 (O75604 whole entry, looked up): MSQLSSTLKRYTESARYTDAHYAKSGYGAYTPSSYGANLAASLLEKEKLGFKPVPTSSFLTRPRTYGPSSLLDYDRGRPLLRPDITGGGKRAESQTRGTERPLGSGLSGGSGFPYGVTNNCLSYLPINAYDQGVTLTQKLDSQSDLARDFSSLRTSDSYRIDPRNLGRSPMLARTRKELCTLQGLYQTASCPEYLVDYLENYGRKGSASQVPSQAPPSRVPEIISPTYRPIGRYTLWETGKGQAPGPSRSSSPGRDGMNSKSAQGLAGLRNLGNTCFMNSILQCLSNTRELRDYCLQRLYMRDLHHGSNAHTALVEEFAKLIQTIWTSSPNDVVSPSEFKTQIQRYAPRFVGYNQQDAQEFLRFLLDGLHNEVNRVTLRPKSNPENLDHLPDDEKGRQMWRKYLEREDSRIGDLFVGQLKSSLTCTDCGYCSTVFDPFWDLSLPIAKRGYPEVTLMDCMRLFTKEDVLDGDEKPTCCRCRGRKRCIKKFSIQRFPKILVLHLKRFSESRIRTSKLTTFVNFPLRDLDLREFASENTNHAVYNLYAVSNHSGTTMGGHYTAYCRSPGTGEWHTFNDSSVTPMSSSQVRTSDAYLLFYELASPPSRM

SMILES | activity change, negative = inhibition | Potency
Clc1ccc(N=c2ssnc2Cl)cc1 | inactive: 1.37% | 
Nc1cccc(N2C(=O)c3cccc4c(N)ccc(c34)C2=O)c1 |  | inconclusive: 11.2 µM [fluorescent, partial curve]
CC(C)c1ccc(/C=C/C(=O)NCCC2=CCCCC2)cc1 | inactive: -1.21% | 
Cc1ccc(C(=O)O/N=C/c2c(C(F)(F)F)nn(C)c2Sc2ccc(Cl)cc2)cc1 |  | inconclusive: 3.55 µM [falling, single point]
C[C@](N)(Cc1ccc(O)c(O)c1)C(=O)O |  | inconclusive: 22.4 µM [falling, single point]
Cc1ccc(N2CN=c3s/c(=C\c4cccnc4)c(=O)n3C2)cc1 |  | inconclusive: 4.47 µM [falling, single point]
N#C/C(=C/c1ccc(N2CCOCC2)o1)C(=O)N1CCOCC1 |  | inconclusive: 11.2 µM [fluorescent, single point]
COc1ccc(Nc2nc(-c3cccnc3)nc3ccccc23)cn1 |  | inconclusive: 11.2 µM [fluorescent, partial curve]
Cc1ccc(N=Nc2c(O)n(CN3CCOCC3)c3ccccc23)cc1 |  | inconclusive: 14.1 µM [fluorescent, single point]
CCN(CC)c1ccc2cc(-c3nnc(-c4ccccc4)o3)c(=O)oc2c1 |  | inconclusive: 0.891 µM [fluorescent, full curve]
COc1ccc(NC(=S)Nc2ccccc2F)c(OC)c1 | inactive: 6.28% | 
c1ccc2sc(SN3CCOCC3)nc2c1 | inactive: 0.244% | 
O=C(COc1ccccc1)Nc1nnc(-c2ccc(Cl)s2)o1 |  | inconclusive: 5.01 µM [falling, single point]
O=C(CCn1c(=O)c2ccccc2n(Cc2ccccc2)c1=O)NCc1ccc2c(c1)OCO2 |  | inconclusive: 28.2 µM [falling, single point]
CC1=C(C(=O)OC(C)C)C(C)C(C(=O)OC(C)C)=C(C)N1 |  | inconclusive: 28.2 µM [falling, single point]
Cc1ccc(C2=NN(C(=O)CSc3nc(N)cc(N)n3)C(c3ccco3)C2)cc1 (stereo unspecified) | inactive: -0.905% | 
O/N=C/c1ccccc1OCc1ccccc1F |  | inconclusive: 5.01 µM [falling, single point]
CC1(C)CC(=O)C2=C(C1)N(Cc1ccco1)C(=O)NC2(C(F)(F)F)C(F)(F)F |  | inconclusive: 28.2 µM [falling, single point]
Cc1cc(C)n(C(=O)c2cccc(S(=O)(=O)N3CCCC3)c2)n1 |  | inconclusive: 2.82 µM [falling, single point]
Cc1cc2nc3c(=O)[nH]c(=S)[nH]c3nc2cc1NC(=O)C(F)(F)F |  | inconclusive: 11.2 µM [fluorescent, partial curve]
Clc1ccc2c(N/N=C/c3ccc(Br)cc3)ccnc2c1 |  | inconclusive: 20 µM [falling, single point]
CCn1ncc(C2=NOC(C(=O)NCc3ccccc3)C2)c1C (stereo unspecified) | inactive: -2.18% | 
COc1ccc(N=Cc2c(O)n(-c3cccc(C)n3)c(=O)c3ccccc23)c(OC)c1 |  | inconclusive: 22.4 µM [fluorescent, single point]
O=C(Nc1nc(-c2ccccn2)cs1)c1ccccc1-n1cnnn1 | inactive: -0.567% | 

SMILES | activity change, negative = inhibition | Potency
O=C(c1ccc(-c2nc3ccccc3s2)s1)N1CCOCC1 | inactive: -0.783% | 
COc1ccc(/C=N/Nc2nncc3ccccc23)cc1 | inactive: 0.152% | 
O=C(Nc1cnn(Cc2ccccc2)c1)c1nc2ncccn2n1 |  | inconclusive: 3.16 µM [falling, single point]
CCOC(=O)c1ccc2nc(Nc3nc4ccc(F)cc4s3)sc2c1 | inactive: 1.31% | 
O=C(N=c1ccn(-c2nc3ccccc3nc2NS(=O)(=O)c2ccc(Cl)cc2)cc1)c1ccccc1Cl |  | inconclusive: 22.4 µM [fluorescent, single point]
Cc1cccc(N2CCN(C(=O)CCc3nc4ccccc4[nH]3)CC2C)c1 (stereo unspecified) |  | inconclusive: 28.2 µM [falling, single point]
COc1ccc(S(=O)(=O)N2CCCCC2)cc1NC(=O)Cc1c[nH]c2ccccc12 |  | inconclusive: 22.4 µM [falling, single point]
CC(=O)N1CCC(=NNS(=O)(=O)c2ccc(C)c([N+](=O)[O-])c2)CC1 | inactive: -0.221% | 
Nc1ccc(N)c(C(=O)O)c1 |  | inconclusive: 28.2 µM [falling, single point]
COc1ccccc1C(=O)n1nc(-c2cccnc2)nc1NCc1ccccc1 |  | inconclusive: 14.1 µM [falling, single point]
Cc1ccc(S(=O)(=O)Nc2ccccc2C(=O)Nc2nc(-c3ccc(F)cc3)cs2)cc1 |  | inconclusive: 11.2 µM [falling, single point]
Cc1ccc(S(=O)(=O)N2CC(O)C2)cc1 | inactive: 0.0885% | 
O=C(c1cc(-c2ccc(F)cc2)nc2ccccc12)N1CCC1 | inactive: -1.68% | 
CCN(CC)c1ccc2nc3ccccc3[n+](CC)c2c1 |  | inconclusive: 10 µM [falling, single point]
CC[C@]12c3[nH]c4cc(-c5ccco5)ccc4c3CCN1C(=O)[C@@H](CC(=O)NC/C=C(\C)CCC=C(C)C)C[C@@H]2C(=O)N1CCN(C(=O)C2CC2)CC1 |  | inconclusive: 11.2 µM [falling, partial curve]
COCCCNc1c2c3c(cccc3[nH]c1=O)C(=O)c1ccccc1-2 |  | inconclusive: 11.2 µM [fluorescent, partial curve]
C#CCOCCOCCOCCNc1nc(N2CCN(C(=O)CCCCCCCCCCNC(=O)Cn3cc(CCCCCN)nn3)CC2)nc(N2CCN(C(=O)CCCCCCCCCCNC(=O)[C@H]([C@@H](C)CC)n3cc(CCCCCN)nn3)CC2)n1 |  | inconclusive: 28.2 µM [falling, single point]
O=C(Nc1ccc(S(=O)(=O)Nc2ncccn2)cc1)c1ccc(S(=O)(=O)N2CCCC2)cc1 |  | inconclusive: 28.2 µM [falling, single point]
CCCCCCCCCCOC(=O)Cn1c(COc2ccccc2)[n+](C)c2ccccc21 |  | inconclusive: 28.2 µM [falling, single point]
CCn1nnnc1SCC(=O)Nc1cccc(NC(C)=O)c1 |  | inconclusive: 12.6 µM [fluorescent, single point]
COc1cccc(NC(=O)CN2CCN(C(=O)c3ccco3)CC2)c1 | inactive: 0.153% | 
O=C(CC1Oc2ccccc2NC1=O)NCc1ccc(Cl)cc1 (stereo unspecified) |  | inconclusive: 22.4 µM [falling, single point]
O=C(Nc1ccc(N2CCCC2)c(Cl)c1)c1ccc(Br)o1 |  | inconclusive: 14.1 µM [falling, single point]
O=C(O)c1ccc(N/N=C/c2ccc3c(c2)OCO3)cc1 | inactive: -0.0317% | 

SMILES | activity change, negative = inhibition | Potency
CC(=O)c1c(N2CCCC2)[nH]c(-c2ccccc2)nc1=S |  | inconclusive: 5.01 µM [falling, single point]
C=CCNC(=S)N1CC2(C)CN(C(=S)NCC=C)CC(C)(C1)C2=O | inactive: 5.65% | 
O=C(Oc1ccc2ccc(=O)oc2c1)c1ccco1 | inactive: 2.21% | 
O=C(Nc1ccccc1OC(F)F)c1cccc(S(=O)(=O)N2CCCC2)c1 | inactive: -3.57% | 
Cc1cccc(NC(=O)C2CC(O)CN2C(=O)Oc2ccccc2)c1 (stereo unspecified) | inactive: 0.676% | 
Cc1ccc2[nH]c(=O)c(C3C(C#N)=C(N)Oc4c3ccc3cccnc43)cc2c1 (stereo unspecified) | inactive: -10.2% | 
CCOC(=O)c1oc2ccccc2c1NC(=O)c1ccccc1OC | inactive: 4.93% | 
Cc1ccc(S(=O)(=O)N(CC(=O)N2CCc3ccccc3C2)c2cccc(Cl)c2)cc1 |  | inconclusive: 17.8 µM [fluorescent, single point]
CCOC(=O)c1c(C)c(C(=O)O)n(C)c1C |  | inconclusive: 28.2 µM [falling, single point]
CC(=O)O[C@H]1[C@H](O)[C@H](Oc2c(O)c(C)c3c4c2[C@@H](C)CC[C@@H]4[C@@H](C)C[C@H]3C=C(C)C)O[C@@H](C)[C@H]1O |  | inconclusive: 28.2 µM [falling, single point]
COc1ccccc1CN1C(=O)c2ccncc2C1=O | inactive: 2.03% | 
Cc1noc(/C=C/c2ccco2)c1S(=O)(=O)N1CCC(C(=O)N(C)Cc2ccccc2)CC1 |  | inconclusive: 11.2 µM [falling, single point]
C#CCOCCOCCOCCNc1nc(N2CCN(C(=O)CCCCCCCCCCNC(=O)[C@H](CCCCN)n3cc(CCO)nn3)CC2)nc(N2CCN(C(=O)CCCCCCCCCCNC(=O)[C@H](CCCCN)n3cc(C[C@@H](C)CC)nn3)CC2)n1 |  | inconclusive: 28.2 µM [falling, single point]
COc1cc(/C=C(/C(=O)c2cccs2)c2nc3ccccc3[nH]2)ccc1O |  | inconclusive: 22.4 µM [falling, single point]
Cc1nc(C)c(C(=O)N/N=C/c2cc(Br)ccc2O)s1 | inactive: -8% | 
CCN(Cc1ccccc1)C(=O)CCS(=O)(=O)c1cc2c(cc1Cl)NC(=O)CO2 | inactive: 1.01% | 
COc1cc(C=C2C(=O)c3ccccc3C2=O)cc(OC)c1 |  | inconclusive: 3.98 µM [fluorescent, full curve]
COc1ccc(N(CC(=O)Nc2cc(C)ccc2C)S(=O)(=O)c2ccccc2[N+](=O)[O-])c(OC)c1 | inactive: -11.6% | 
O=C(O)c1cc(N2N=C(C(F)(F)F)/C(=C/C=C/c3ccco3)C2=O)ccc1Cl |  | active: 10 µM
O=C(O)c1cc(N2C(=O)C3C4C=CC(C4)C3C2=O)ccc1NCc1cccnc1 (stereo unspecified) | inactive: -1.47% | 
COc1ccc(-n2c(SCC(=O)N3CCN(c4ccccc4)CC3)nc3c(c2=O)SCC3)cc1 |  | inconclusive: 22.4 µM [falling, single point]
Cc1nnsc1S(=O)c1ccc(Cl)cc1 (stereo unspecified) | inactive: 5.69% | 
Cc1ccc(S(=O)(=O)N2[C@@H](c3ccc(C(C)(C)C)cc3)C(C(=O)O)=CC[C@H]2c2ccc(Cl)cc2)cc1 |  | inconclusive: 28.2 µM [falling, single point]
